The text below walks through data of patent publication US20050250127A1, “Methods for identifying modulators of MDA-7 mediated apoptosis” (priority 2002, published 2005).

Structures are written as SMILES.

The test system of assay [1] is GADD family of genes (GADD153, GADD34, GADD45alpha, GADD45gamma) in FO-1 cells. Description: Northern blot of GADD family mRNA in FO-1 cells. In kind it is cell-based, human. The protocol: (§1) Total RNA was extracted and Northern analysis was performed using the indicated cDNA probes as described in Section 6. […] C.
(§2) RNA Isolation and Northern Blot Analysis. Total RNA was extracted from the cells using Qiagen RNeasy mini kit (Qiagen) according to the manufacturer's protocol and Northern blotting was performed as described in Su et al., 1997, Proc. Natl. Acad. Sci. USA. 94, 9125-9130. The cDNA probes used were full length human GADD153, full length human GADD45-alpha, beta and gamma, a 500-bp fragment from human GADD34 and full-length human GAPDH.

Assay [2] deals with GADD153, GADD34 and GADD45alpha proteins in FO-1 cells. Kind of assay: Western blot of GADD proteins in FO-1 cells. In kind it is cell-based, human. Particulars: Ad.mda-7 100 pfu/cell, 1 μM SB203580, 3 days. On the procedure:
as §1

Assay [3] has as its system phospho-p38 MAPK and phospho-HSP27 in FO-1 cells. Kind of assay: Phosphorylation of p38 MAPK and HSP27 in FO-1 cells (Western blot). It is filed as cell-based, human. Particulars: Ad.mda-7 100 pfu/cell; 1 μM SB203580 or Ad.p38DN 100 pfu/cell, 3 days.
A further assay concerns FO-1 melanoma cells. Description: MTT cell viability assay in FO-1 cells. It is filed as cell-based, human. The settings on record: Ad.mda-7 100 pfu/cell; 1 μM SB203580 or Ad.p38DN 100 pfu/cell; 4 days. On the procedure: FIG. 3. […] Cell viability was measured by MTT assay after 4 days.
FIG. 5. inhibition of the GADD family of genes protects FO-1 melanoma cells from Ad.mda-7-mediated cell death. FO-1 cells were transfected with the indicated antisense construct either alone or in combination. […] Cell viability was measured by MTT assay. Cell viability of Ad.vec treated cells was regarded as 1.
Cell Lines, Reagents and Cell Growth Assays. Normal immortal human melanocyte (FM516-SV; FM516), WM35 early radial growth phase (RGP) primary human melanoma and HO-1, FO-1 and MeWo metastatic melanoma cell lines were cultured as previously described (Kerbel et al., 1984, J. Natl. Cancer Inst. 72, 93-108; Fisher et al., 1985, J. Interferon Res. 5, 11-22; Herlyn,1990. Cancer Metastasis Rev. 9, 101-112; Melber et al., 1989, Cancer Res. 49, 3650-3655). SB203580 was purchased from Sigma (St Louis, Mo.). Cell growth and viable cell numbers were monitored by 3-(4,5-dimethylthiazol-2-yl)-2,5-diphenyl tetrazolium bromide (MTT) staining as described in Lebedeva et al., 2000, Cancer Res. 60, 6052-6060.

In assay [4] the test system is FO-1 cells. Kind of assay: DNA fragmentation assay in FO-1 cells. In kind it is cell-based, human. The settings on record: Ad.mda-7 100 pfu/cell, 1 μM SB203580, 3 days. On the procedure:
(§3) FIG. 4A-C. […] DNA was isolated from the cells and fragmentation was analyzed as described in Section 6. […] Cell cycle was analyzed as described in Section 6. C. […] Percentage of apoptotic cells at day 1 and day 3 post-infection in each group were plotted.

In assay [5] the test system is FO-1 cells. Description: Cell cycle analysis (FACS), apoptotic cells in FO-1. In kind it is cell-based, human. The settings on record: Ad.mda-7 100 pfu/cell; 1 μM SB203580 or Ad.p38DN 100 pfu/cell. On the procedure: as §3
Cell cycle analysis. Cells were harvested, washed in PBS and fixed overnight at −20° C. in 70% ethanol. The cells were treated with RNase A (1 mg/ml) at 37° C. for 30 min and then with propidium iodide (50 μg/ml). Cell cycle was analyzed using a FACScan flow cytometer and data were analyzed using CellQuest software (Becton Dickinson, San Jose, Calif.).

The subject of assay [6] is BCL-2 protein in FO-1 cells. Kind of assay: Western blot of BCL-2 protein in FO-1 cells.
Assay [7] relates to FO-1 cells. Description: Dose-response studies of SB203580 in FO-1 cells.
Assay [8] has as its system DU-145 prostate cancer cells. Kind of assay: Apoptotic fraction (A0) by FACS in DU-145. In kind it is cell-based, human. The settings on record: Ad.vec or Ad.mda-7 100 p.f.u./cell, 48 h. The protocol:
Cells were analyzed for cell viability by the MTT proliferation assay as described, 5-days after infection.
Annexin-V binding assay. Cells were trypsinized and washed once with complete media. Aliquots of cells (5×10^5) were resuspended in complete media (0.5 ml) and stained with FITC-labeled Annexin-V (Oncogene Research Products, Boston, Mass.) according to the manufacturer's instructions. Propidium Iodide (PI) was added to the samples after staining with Annexin-V to exclude late apoptotic and necrotic cells. FACS assay was performed immediately after staining. The percentage of the cells in the apoptotic (Ao) fraction was calculated using CellQuest software (Becton Dickinson).

Assay [9] has as its system GADD family of genes in FM516-SV (FM516) cells. Description: Northern blot of GADD family genes in FM516 immortalized melanocytes. It is filed as cell-based, human. The protocol:
as §1, §2

The mark [10] stands for this setting: Ad.mda-7 100 pfu/cell, different concentrations for 2 days.

Turning to `C[S+]([O-])c1ccc(-c2nc(-c3ccncc3)c(-c3ccc(F)cc3)[nH]2)cc1` (stereo not drawn) [SB203580], in assay [1] (Ad.mda-7 100 pfu/cell, days 2 and 3), the “Ad.mda-7-mediated induction of GADD family genes (mRNA)” value is on record as “significantly inhibited”. In addition, in [1] (setting [10]), the “concentration giving maximum inhibition of GADD gene induction” value is 1 µM and the “concentration giving minimum inhibition of GADD gene induction” value amounted to 0.01 µM. Besides, the “basal expression of the GADD family of genes” value in assay [1] (SB203580 alone) is “did not affect the basal expression”. Also, in assay [2], the “Ad.mda-7-mediated induction of GADD153, GADD34 and GADD45alpha proteins” value is on record as “could inhibit”. Further, the “Ad.mda-7-induced phosphorylation of HSP27 in presence of p38 MAPK blockade” value in assay [3] is “could be blocked”. Besides, the “effect on Ad.mda-7 reduction of cell viability” value with FO-1 melanoma cells is recorded as “reversed the mda-7 inhibitory effect”. In the assay with FO-1 cells [4], the “Ad.mda-7-mediated DNA fragmentation in presence of inhibitor” value was “effectively inhibited”. The “induction of apoptosis by Ad.mda-7 in presence of p38 MAPK blockade” value with FO-1 cells [5] is recorded as “prevented the induction of apoptosis”. Further, the “Ad.mda-7-mediated downregulation of the BCL-2 protein” value in [6] (Ad.mda-7 100 pfu/cell, 1 μM SB203580, 3 days) was “prevented Ad.mda-7-mediated downregulation”. Moreover, the “Ad.mda-7-mediated modulation of other pro- or anti-apoptotic proteins” value in [6] (FO-1) is on record as “did not have any effect”. Besides, in the assay with FO-1 cells [7], the “most effective concentration, without inducing toxicity” value amounted to 1 µM.

Take `N#C/C(=C\c1ccc(O)c(O)c1)C(=O)NCc1ccccc1` [AG490]: the “A0 (sub G0/G1) profile in presence of inhibitor” value in assay [8] was “No overall profile change”.

Regarding `O=c1c(-c2ccc(O)cc2)coc2cc(O)cc(O)c12` [Genistein], the “A0 (sub G0/G1) profile in presence of inhibitor” value in [8] is given as “No overall profile change”.

In the case of `COS(C)(=O)=O` [methyl methanesulfonate], in [9], the “induction of the GADD family of genes” value is listed as “induces the GADD family of genes”.
